Measured values from a collection of fitness landscapes (doi:10.1016/j.celrep.2020.107928).
In all, about 81,000 sequences were measured (“one-hybrid fitness for binding parS DNA”: median about -0.17, highest 2% from about 0.51 on). The list shows a part of the results.

B1: Caulobacter ParB omega fusion; a variant is named by its letters at X, in order, B8GW30 (parent)
chain: MESVVVGEPGMSEGRRGLGRGLSALLGEVDAAPAQAPGEQLGGSREAPIEILQRNPDQPRRTFREEDLEDLSNSIREKGVLQPILVRPSPDTAGEYQIVAGERAWRAAQRAGLKTVPIMVRELDDLAVLEIGIIENVQRADLNVLEEALSYKVLMEKFERTQENIAQTIGKSXSHVANXMRLLXLPDEVQSYLVSGELTAXHARAIAAAADPVALAKQIIEGGLSVRETEALARKAPNLSAGKSKGGRPPRVKDTDTQALESDLSSVLGLDVSIDHRGSTGTLTITYATLEQLDDLCNRLTRGI

Variants of: B1
Assay: one-hybrid fitness for binding parS DNA (scaled: cognate 1, non-cognate 0); higher = stronger binding
Conditions: with parS DNA site
Outline: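 Pre- and post-selection plasmids were Illumina-sequenced, three replicate libraries were pooled, and any variant with under 10 reads was removed. The libraries were Caulobacter ParB with four specificity codons randomised, selected in E. coli USO through a HIS3 reporter whose site is 19 bp from the promoter. Cells grew 48 hours at 37°C on M9 without histidine, with 0.1 mM IPTG and 5 mM 3-AT. Fitness is the log change in variant-to-wild-type read ratio, rescaled against cognate and non-cognate.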

Variant | one-hybrid fitness for binding parS DNA
SVYP | ≤ 0.2
RIYS | 1.07
SSPI | ≤ 0.2
STLN | ≤ 0.2
YAVL | ≤ 0.2
RLHI | ≤ 0.2
KKPI | ≤ 0.2
RTRP | ≤ 0.2
TRTD | ≤ 0.2
VMTG | ≤ 0.2
RPAL | ≤ 0.2
VWRY | ≤ 0.2
QQNP | ≤ 0.2
TYWT | ≤ 0.2
CAQE | ≤ 0.2
IAMM | ≤ 0.2
KAQG | ≤ 0.2
KCSM | ≤ 0.2
DKAA | ≤ 0.2
FKTT | ≤ 0.2
CCQW | ≤ 0.2
VEKR | ≤ 0.2
DDGS | ≤ 0.2
EDTT | ≤ 0.2
MKWR | ≤ 0.2
CTDT | ≤ 0.2

Variant | one-hybrid fitness for binding parS DNA
FHKC | ≤ 0.2
ACVR | ≤ 0.2
MKFW | ≤ 0.2
APTP | ≤ 0.2
WVSR | ≤ 0.2
DKQT | ≤ 0.2
TSMP | ≤ 0.2
DRER | ≤ 0.2
QDCM | ≤ 0.2
HSWT | ≤ 0.2
PEYE | ≤ 0.2
GAIR | ≤ 0.2
HMKS | ≤ 0.2
HDAA | ≤ 0.2
HRRL | ≤ 0.2
SVSR | ≤ 0.2
NVKM | ≤ 0.2
QDPL | ≤ 0.2
GEHR | ≤ 0.2
SLCP | ≤ 0.2
HITS | ≤ 0.2
PMNH | ≤ 0.2
CWTL | ≤ 0.2
IFRG | ≤ 0.2
GGGV | ≤ 0.2
IPSD | ≤ 0.2

Variant | one-hybrid fitness for binding parS DNA
MNTI | ≤ 0.2
HKTE | ≤ 0.2
VVTR | ≤ 0.2
RCMV | ≤ 0.2
MCAL | ≤ 0.2
TNIG | ≤ 0.2
RYDP | ≤ 0.2
RYSR | ≤ 0.2
NLPT | ≤ 0.2
TSYA | ≤ 0.2
YTAG | ≤ 0.2
RTNY | 0.659
IMCR | ≤ 0.2
CAVG | ≤ 0.2
GANT | ≤ 0.2
NQPG | ≤ 0.2
RKAV | ≤ 0.2
DRTD | ≤ 0.2
NPTA | ≤ 0.2
TCNL | ≤ 0.2
VPNV | ≤ 0.2
PRML | ≤ 0.2
RWPR | ≤ 0.2
RGSE | ≤ 0.2
AMPT | ≤ 0.2
QWAT | ≤ 0.2

Variant | one-hybrid fitness for binding parS DNA
DPLM | ≤ 0.2
RPVR | ≤ 0.2
KNPG | ≤ 0.2
TSLM | ≤ 0.2
CLAR | ≤ 0.2
PTCS | ≤ 0.2
WPQL | ≤ 0.2
REYT | ≤ 0.2
YTKS | ≤ 0.2
NPSW | ≤ 0.2
FAKH | ≤ 0.2
GPNP | ≤ 0.2
VSWL | ≤ 0.2
LISP | ≤ 0.2
MMDS | ≤ 0.2
GTVV | ≤ 0.2
RNRS | 0.961
NLSR | ≤ 0.2
PRHC | ≤ 0.2
SHIY | ≤ 0.2
LVCR | ≤ 0.2
TSSF | ≤ 0.2
SSIL | ≤ 0.2
WLGG | ≤ 0.2
HTPE | ≤ 0.2
EMIK | ≤ 0.2

Variant | one-hybrid fitness for binding parS DNA
LSGN | ≤ 0.2
SVCA | ≤ 0.2
MTTT | ≤ 0.2
CLWI | ≤ 0.2
PGLG | ≤ 0.2
KRIE | ≤ 0.2
YVAG | ≤ 0.2
TGSL | ≤ 0.2
QNWG | ≤ 0.2
YLMV | ≤ 0.2
PEDE | ≤ 0.2
ANSW | ≤ 0.2
AALN | ≤ 0.2
EASY | ≤ 0.2
TMFS | ≤ 0.2
VPVF | ≤ 0.2
TKPK | ≤ 0.2
PERD | ≤ 0.2
GFLS | ≤ 0.2
GASC | ≤ 0.2
IMHG | ≤ 0.2
QLFF | ≤ 0.2
TFPM | ≤ 0.2
HAMN | ≤ 0.2
SIPV | ≤ 0.2
RCKR | ≤ 0.2

Variant | one-hybrid fitness for binding parS DNA
TLAT | ≤ 0.2
QYPK | ≤ 0.2
QMAL | ≤ 0.2
ALND | ≤ 0.2
VLKH | ≤ 0.2
VQSE | ≤ 0.2
WELR | ≤ 0.2
VQSW | ≤ 0.2
PLRI | ≤ 0.2
MKRI | ≤ 0.2
KPNV | ≤ 0.2
AMLV | ≤ 0.2
LARF | ≤ 0.2
AKDL | ≤ 0.2
HRLT | ≤ 0.2
EGGC | ≤ 0.2
KHYG | ≤ 0.2
ETAE | ≤ 0.2
ACHE | ≤ 0.2
PLLV | ≤ 0.2
NGVC | ≤ 0.2
KSSE | ≤ 0.2
CPTA | ≤ 0.2
